About 14,000 (4.5%) of roughly 310,000 compounds showed an effect of 50% or more. Effects have a minus sign here. The list shows a part of the results.
These compounds were tested against human ether-à-go-go-related gene (hERG) potassium channel (human, UniProt Q12809) (assay: primary screen, population patch clamp on CHO cells stably expressing hERG).
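Also: peak tail current of the secondary pulse compared with the same well before compound.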

Chain of human ether-à-go-go-related gene (hERG) potassium channel (Q12809 whole entry, looked up): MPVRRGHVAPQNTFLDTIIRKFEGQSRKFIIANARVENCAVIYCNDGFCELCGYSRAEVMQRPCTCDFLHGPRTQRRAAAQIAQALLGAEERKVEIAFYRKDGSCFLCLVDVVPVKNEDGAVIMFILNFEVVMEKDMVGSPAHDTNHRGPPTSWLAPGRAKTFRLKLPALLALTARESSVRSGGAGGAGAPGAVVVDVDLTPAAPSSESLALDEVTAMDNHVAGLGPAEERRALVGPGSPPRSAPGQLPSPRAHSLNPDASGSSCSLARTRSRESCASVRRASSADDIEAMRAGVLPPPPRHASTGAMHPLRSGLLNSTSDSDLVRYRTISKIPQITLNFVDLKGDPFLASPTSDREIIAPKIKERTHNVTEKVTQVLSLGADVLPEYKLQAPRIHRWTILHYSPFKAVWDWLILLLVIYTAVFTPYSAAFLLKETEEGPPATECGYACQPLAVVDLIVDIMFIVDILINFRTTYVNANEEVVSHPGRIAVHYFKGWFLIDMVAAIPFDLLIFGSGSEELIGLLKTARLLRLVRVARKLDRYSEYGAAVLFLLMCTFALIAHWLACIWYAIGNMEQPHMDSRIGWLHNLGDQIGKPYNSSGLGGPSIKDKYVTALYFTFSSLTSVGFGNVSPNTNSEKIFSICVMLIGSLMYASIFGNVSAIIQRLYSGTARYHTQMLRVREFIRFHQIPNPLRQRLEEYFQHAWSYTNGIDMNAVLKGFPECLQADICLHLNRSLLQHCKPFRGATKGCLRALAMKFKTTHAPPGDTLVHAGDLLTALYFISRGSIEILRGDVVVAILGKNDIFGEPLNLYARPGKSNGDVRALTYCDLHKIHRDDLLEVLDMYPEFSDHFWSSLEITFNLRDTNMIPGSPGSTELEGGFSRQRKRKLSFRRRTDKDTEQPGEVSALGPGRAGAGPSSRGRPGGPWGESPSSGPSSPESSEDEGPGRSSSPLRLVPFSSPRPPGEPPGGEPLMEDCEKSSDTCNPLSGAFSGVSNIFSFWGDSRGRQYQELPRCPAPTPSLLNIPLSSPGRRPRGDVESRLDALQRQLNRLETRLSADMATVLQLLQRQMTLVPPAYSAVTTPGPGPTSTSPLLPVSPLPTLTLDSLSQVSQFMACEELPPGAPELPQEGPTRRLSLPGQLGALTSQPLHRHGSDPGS

Row | Compound | hERG current change (%, negative = inhibition) at 10uM
1 | Cc1ccc(NC(=O)C2CCCN(S(=O)(=O)c3cccnc3)C2)cc1C (stereo not drawn) | -6.36%
2 | c1ccc(Oc2nc(N3CCOCC3)nc(N3CCOCC3)n2)cc1 | -5.6%
3 | CCn1c(SCC(=O)Nc2nc3ccccc3s2)nnc1-c1ccc(OC)cc1 | -1.62%
4 | O=C(CSc1nnc(NC(=O)c2ccc(F)cc2F)s1)NC1CC1 | 12.1%
5 | COc1cc2c(C(=O)Nc3ccc4c(c3)OCO4)cn(CC(C)C)c(=O)c2cc1OC | -2.44%
6 | CCCOC(=O)c1c(NC(=O)CCCn2nc([N+](=O)[O-])c(Cl)c2C)sc(C(=O)OC)c1C | 6.92%
7 | CC(C)C[C@H](NC(=O)c1nc[nH]c1C(=O)N1CC[NH2+]CC1)C(=O)OC(C)(C)C.[Cl-] | -13%
8 | CCOc1cccc(/C=C/c2ccc3cccc(O)c3n2)c1OC | 25.2%
9 | COc1ccccc1C1C(C(=O)c2ccco2)=C(O)C(=O)N1c1cc(C)on1 (stereo not drawn) | -12.8%
10 | O=C(Nc1nc2ccc(S(=O)(=O)N3CCOCC3)cc2s1)c1cccs1 | 1.56%
11 | COc1ccc(/C=C(/NC(=O)c2ccccc2)C(=O)N/N=C/c2sccc2C)cc1 | -21.6%
12 | Cc1cc(C)nc(N2CCCC(C(=O)Nc3nc4ccc(S(C)(=O)=O)cc4s3)C2)n1 (stereo not drawn) | -25.7%
13 | O=S(=O)(N1CCCCC1)N1CCN(CC(O)COc2ccc3cc(Br)ccc3c2)CC1 (stereo not drawn) | 7.33%
14 | O=C(NCc1ccc(F)cc1)c1ccc(CNc2c(N3CCOCC3)c(=O)c2=O)cc1 | 17.7%
15 | NC(=O)NC(=O)CC1S/C(=N/N=C2\CSC(=O)N2)NC1=O (stereo not drawn) | 15.9%
16 | Cn1cccc1/C=N/NC(=O)c1cccnc1 | 13.6%
17 | OCCNC(=S)Nc1ccc2c(c1)OCCO2 | 9.32%
18 | O=C(Nc1nnc(SCc2ccccc2Cl)s1)C1COc2ccccc2O1 (stereo not drawn) | 19.7%
19 | Brc1ccc2c(c1)C(c1ccc(N3CCOCC3)cc1)=NNC(c1cccs1)=N2 | 4.37%
20 | Cc1ccc(CN2CCN(CC(=O)N3CCC(C(N)=O)CC3)C2=O)cc1 | 5.43%
21 | COc1cccc(/C=C/C(=O)OCC(=O)Nc2ccc(Cl)cn2)c1 | 28.1%
22 | O=C(NCCc1ccc(Cl)cc1)c1ccc(=O)[nH]c1 | 3.03%
23 | CC(C)=NOc1nc(N(C)C)nc(N2CCOCC2)n1 | 2.14%
24 | COc1nc(NC(C)(C)C)nc(Oc2ccc(=O)n(-c3ccccc3)n2)n1 | -15.1%

Reference: paper PMC4336329 (PLoS ONE, 2015)
